Results on 9 cell lines are retold here after the supplement of paper PMC4967469.

In general, IC50 refers to the concentration at which inhibition is half-maximal.

Holding throughout (assay): Viability of human cancer cell lines after 72 h of drug (GDSC screen)
Compound in assay [1]: NCC(=O)Nc1ccc(-n2nc(C(F)(F)F)cc2-c2ccc3c(ccc4ccccc43)c2)cc1 [OSU-03012]
The note with it: top dose 16 µM; top dose inferred. The method, then:
(§1)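 Human cancer cell lines in 384-well plates, medium with 10% serum, drug for 72 h over a 256-fold dose range (nine 2-fold or five 4-fold steps up to the top dose). Adherent lines were fixed and stained with the nucleic acid dye Syto60, suspension lines read with resazurin; signal relative to control wells, capped at 0 and 100%. One two-parameter sigmoid per drug and line, fitted in a mixed model over all curves with the slope shared within a line.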

Compound in assay [2]: C#Cc1cccc(Nc2ncnc3cc(OC)c(OCCCCCCC(=O)NO)cc23)c1 [CUDC-101]
The note with it: top dose 5.12 µM; top dose inferred. The method, then: as §1

Compound in assay [3]: Fc1cc(-c2ccnc(Nc3ccc(-n4cnc(N5CCOCC5)n4)cc3)n2)cc(N2CCOCC2)c1 [JNK-9L]
The note with it: top dose 5.12 µM; top dose inferred. The method, then:
as §1

Compound in assay [4]: OC[C@H](Cc1ccccc1)Nc1nc(Oc2ccc3c(c2)CCC3)nc2c1ncn2Cc1ccc(-c2ccccc2)cc1 [QS11]
The note with it: top dose 10.24 µM. On the procedure: as §1

Compound in assay [5]: CC(C)(C)c1cc(NC(=O)Nc2ccc(-c3cn4c(n3)sc3cc(OCCN5CCOCC5)ccc34)cc2)no1 [AC220]
The note with it: top dose 1.024 µM; top dose inferred. The method, then:
as §1

Compound in assay [6]: COc1cc(F)c(F)c(Nc2ccc(I)cc2F)c1NS(=O)(=O)C1(C[C@H](O)CO)CC1 [RDEA119]
Particulars: top dose 5 µM, top dose inferred. The method, then:
as §1

A lower IC50 marks a more sensitive line; fits outside the tested doses are given as limits. AUC, from the same fit, is the share of area under the viability curve across the 256-fold dose range: 1 means no effect, lower means more sensitive. For part of these data: Where the top dose is marked as inferred, it comes from the curve model; the source does not state it. For part of these data: An entry number marks a drug with two screens in the source, which often give different values.

Take “NCI-H322M (lung adenocarcinoma, suspension)”: the AUC is 0.985 in assay [1]; 0.546 in assay [2]; 0.965 in assay [3]; 0.982 in assay [4]; 0.971 in assay [5]; 0.92 in assay [6] (screen: GDSC drug entry 1014). In addition, the AUC in assay [6] (screen: GDSC drug entry 1526) was 0.948. Moreover, the IC50 in assay [1] was above 16000 nM; in assay [2], 439 nM; in assay [3], above 5120 nM; in assay [4], above 10200 nM; in assay [5], above 1020 nM; in assay [6] (screen: GDSC drug entry 1014) it was above 5000 nM. Besides, in assay [6] (screen: GDSC drug entry 1526), the half-maximal inhibitory concentration (IC50) was above 5000 nM.

Regarding “NCI-H441 (lung adenocarcinoma, adherent)”, the AUC came to 0.797 in assay [1]; 0.809 in assay [2]; 0.816 in assay [3]; 0.909 in assay [4]; 0.978 in assay [5]; 0.71 in assay [6] (screen: GDSC drug entry 1526). In addition, the IC50 in assay [1] is 11400 nM; in assay [2], 4140 nM; in assay [3] it was 4490 nM; in assay [4] it was above 10200 nM; in assay [5] it was above 1020 nM; in assay [6] (screen: GDSC drug entry 1526) it was 1580 nM.

Turning to “NCI-H446 (small cell lung carcinoma, semi-adherent)”, the AUC is 0.908 in assay [1]; 0.402 in assay [2]; 0.704 in assay [3]; 0.982 in assay [4]; 0.934 in assay [5]; 0.966 in assay [6] (screen: GDSC drug entry 1014). The AUC in assay [6] (screen: GDSC drug entry 1526) stood at 0.984. The IC50 in assay [1] is above 16000 nM; in assay [2], 169 nM; in assay [3] it was 1260 nM; in assay [4] it was above 10200 nM; in assay [5], above 1020 nM; in assay [6] (screen: GDSC drug entry 1014), above 5000 nM. Also, the IC50 in assay [6] (screen: GDSC drug entry 1526) is above 5000 nM.

As for “NCI-H460 (large cell lung carcinoma, adherent)”, the AUC came to 0.549 in assay [1]; 0.961 in assay [2]; 0.519 in assay [3]; 0.747 in assay [4]; 0.989 in assay [5]; 0.81 in assay [6] (screen: GDSC drug entry 1014). In assay [6] (screen: GDSC drug entry 1526), the AUC is 0.867. For the same cell line, the concentration for half-maximal inhibition (IC50) is 1340 nM in assay [1]; above 5120 nM in assay [2]; 360 nM in assay [3]; 3010 nM in assay [4]; above 1020 nM in assay [5]; 2330 nM in assay [6] (screen: GDSC drug entry 1014). In assay [6] (screen: GDSC drug entry 1526), the IC50 is 3790 nM.

For “NCI-H520 (lung squamous cell carcinoma, adherent)”, the AUC in assay [1] was found to be 0.669; in assay [2], 0.481; in assay [3], 0.534; in assay [4] it was 0.916; in assay [5], 0.93; in assay [6] (screen: GDSC drug entry 1014) it was 0.952. Besides, in assay [6] (screen: GDSC drug entry 1526), the AUC came out at 0.984. In addition, the IC50 in assay [1] is 3020 nM; in assay [2], 283 nM; in assay [3] it was 398 nM; in assay [4], above 10200 nM; in assay [5], above 1020 nM; in assay [6] (screen: GDSC drug entry 1014), above 5000 nM. In assay [6] (screen: GDSC drug entry 1526), the IC50 is above 5000 nM.

Regarding “NCI-H1048 (small cell lung carcinoma, adherent)”, the AUC amounted to 0.747 in assay [1]; 0.582 in assay [2]; 0.627 in assay [3]; 0.942 in assay [4]; 0.985 in assay [5]; 0.877 in assay [6] (screen: GDSC drug entry 1014). Further, the AUC in assay [6] (screen: GDSC drug entry 1526) came out at 0.98. In addition, the IC50 is 4680 nM in assay [1]; 524 nM in assay [2]; 691 nM in assay [3]; above 10200 nM in assay [4]; above 1020 nM in assay [5]; 4160 nM in assay [6] (screen: GDSC drug entry 1014). For the same cell line, the 50% inhibitory concentration (IC50) in assay [6] (screen: GDSC drug entry 1526) was above 5000 nM.

Consider “NCI-H1299 (large cell lung carcinoma, adherent)”, for which the AUC in assay [1] was found to be 0.593; in assay [2], 0.802; in assay [3], 0.575; in assay [4] it was 0.858; in assay [5], 0.981; in assay [6] (screen: GDSC drug entry 1526), 0.773. Further, the IC50 is 1910 nM in assay [1]; 3230 nM in assay [2]; 538 nM in assay [3]; above 10200 nM in assay [4]; above 1020 nM in assay [5]; 2400 nM in assay [6] (screen: GDSC drug entry 1526).

Regarding “NCI-H1417 (small cell lung carcinoma, suspension)”, the AUC in assay [1] amounted to 0.818; in assay [2], 0.491; in assay [3], 0.871; in assay [4] it was 0.866; in assay [5] it was 0.959; in assay [6] (screen: GDSC drug entry 1014), 0.75. The AUC in assay [6] (screen: GDSC drug entry 1526) was 0.527. Besides, the 50% inhibitory concentration (IC50) in assay [1] is 11400 nM; in assay [2], 302 nM; in assay [3], above 5120 nM; in assay [4], above 10200 nM; in assay [5], above 1020 nM; in assay [6] (screen: GDSC drug entry 1014) it was 1910 nM. Also, in assay [6] (screen: GDSC drug entry 1526), the IC50 worked out at 377 nM.

For “NCI-H1437 (lung adenocarcinoma, adherent)”, the AUC in assay [1] stood at 0.799; in assay [2], 0.742; in assay [3] it was 0.518; in assay [4], 0.804; in assay [5], 0.904; in assay [6] (screen: GDSC drug entry 1014) it was 0.553. The IC50 is 8050 nM in assay [1]; 1630 nM in assay [2]; 358 nM in assay [3]; 5360 nM in assay [4]; above 1020 nM in assay [5]; 439 nM in assay [6] (screen: GDSC drug entry 1014).
